Our source for the binding signal values is paper PMC9911399, “Two distinct binding modes provide the RNA-binding protein RbFox with extraordinary sequence specificity”.

T1: RBFOX1 RRM RbFoxmut (Fox-RRM*) (Homo sapiens, UniProt Q9NWB1 109-208, R118D;E147R;N151S;E152T)
T1 sequence: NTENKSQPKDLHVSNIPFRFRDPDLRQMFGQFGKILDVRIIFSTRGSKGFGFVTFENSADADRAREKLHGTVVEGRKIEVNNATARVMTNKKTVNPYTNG

B1: GCUCCUU (DNA:RNA)
RNA: GGGAGACCGGAAUUCAGAUUGUCCGCUCCUUUUAAAUCCCGUCGUAGCCACCA
DNA 1: CAATCTGAATTCCGGTCTCCC
DNA 2: TGGTGGCTACGACGGGATT
B2: CGGCGCC (DNA:RNA)
RNA: B1 RNA with G25C, C26G, U27G, C29G, U30C, U31C
DNA 1: CAATCTGAATTCCGGTCTCCC
DNA 2: TGGTGGCTACGACGGGATT
B3: CACUCAA (DNA:RNA)
RNA: B1 RNA with G25C, C26A, U27C, C28U, U30A, U31A
DNA 1: CAATCTGAATTCCGGTCTCCC
DNA 2: TGGTGGCTACGACGGGATT
B4: GGCACAU (DNA:RNA)
RNA: B1 RNA with C26G, U27C, C28A, U30A
DNA 1: CAATCTGAATTCCGGTCTCCC
DNA 2: TGGTGGCTACGACGGGATT
B5: GAUGUCA (DNA:RNA)
RNA: B1 RNA with C26A, C28G, C29U, U30C, U31A
DNA 1: CAATCTGAATTCCGGTCTCCC
DNA 2: TGGTGGCTACGACGGGATT
B6: CGCAUCG (DNA:RNA)
RNA: GGGAGACCGGAAUUCAGAUUGUCCCGCAUCGUUAAAUCCCGUCGUAGCCACCA
DNA 1: CAATCTGAATTCCGGTCTCCC
DNA 2: TGGTGGCTACGACGGGATT
B7: CACUUUC (DNA:RNA)
RNA: B6 RNA with G26A, A28U, C30U, G31C
DNA 1: CAATCTGAATTCCGGTCTCCC
DNA 2: TGGTGGCTACGACGGGATT
B8: GGUUUGU (DNA:RNA)
RNA: B1 RNA with C26G, C28U, C29U, U30G
DNA 1: CAATCTGAATTCCGGTCTCCC
DNA 2: TGGTGGCTACGACGGGATT
B9: GAGAGGU (DNA:RNA)
RNA: B1 RNA with C26A, U27G, C28A, C29G, U30G
DNA 1: CAATCTGAATTCCGGTCTCCC
DNA 2: TGGTGGCTACGACGGGATT
B10: GAGCUGG (DNA:RNA)
RNA: B6 RNA with C25G, G26A, C27G, A28C, C30G
DNA 1: CAATCTGAATTCCGGTCTCCC
DNA 2: TGGTGGCTACGACGGGATT
B11: UAUUUUC (DNA:RNA)
RNA: B1 RNA with G25U, C26A, C28U, C29U, U31C
DNA 1: CAATCTGAATTCCGGTCTCCC
DNA 2: TGGTGGCTACGACGGGATT
B12: AAUGGAC (DNA:RNA)
RNA: B1 RNA with G25A, C26A, C28G, C29G, U30A, U31C
DNA 1: CAATCTGAATTCCGGTCTCCC
DNA 2: TGGTGGCTACGACGGGATT
B13: CGAUUAC (DNA:RNA)
RNA: B6 RNA with C27A, A28U, C30A, G31C
DNA 1: CAATCTGAATTCCGGTCTCCC
DNA 2: TGGTGGCTACGACGGGATT
B14: CCUUCUU (DNA:RNA)
RNA: B1 RNA with G25C, C28U
DNA 1: CAATCTGAATTCCGGTCTCCC
DNA 2: TGGTGGCTACGACGGGATT
B15: GUUGGGC (DNA:RNA)
RNA: B1 RNA with C26U, C28G, C29G, U30G, U31C
DNA 1: CAATCTGAATTCCGGTCTCCC
DNA 2: TGGTGGCTACGACGGGATT
B16: AGACAAG (DNA:RNA)
RNA: B6 RNA with C25A, C27A, A28C, U29A, C30A
DNA 1: CAATCTGAATTCCGGTCTCCC
DNA 2: TGGTGGCTACGACGGGATT
B17: GCCCUGC (DNA:RNA)
RNA: B1 RNA with U27C, C29U, U30G, U31C
DNA 1: CAATCTGAATTCCGGTCTCCC
DNA 2: TGGTGGCTACGACGGGATT
B18: CCUGCCA (DNA:RNA)
RNA: B1 RNA with G25C, C28G, U30C, U31A
DNA 1: CAATCTGAATTCCGGTCTCCC
DNA 2: TGGTGGCTACGACGGGATT
B19: AAGGGUC (DNA:RNA)
RNA: B1 RNA with G25A, C26A, U27G, C28G, C29G, U31C
DNA 1: CAATCTGAATTCCGGTCTCCC
DNA 2: TGGTGGCTACGACGGGATT
B20: CUGCCAU (DNA:RNA)
RNA: B1 RNA with G25C, C26U, U27G, U30A
DNA 1: CAATCTGAATTCCGGTCTCCC
DNA 2: TGGTGGCTACGACGGGATT
B21: ACUAUUA (DNA:RNA)
RNA: B1 RNA with G25A, C28A, C29U, U31A
DNA 1: CAATCTGAATTCCGGTCTCCC
DNA 2: TGGTGGCTACGACGGGATT
B22: AGGGUGC (DNA:RNA)
RNA: B6 RNA with C25A, C27G, A28G, C30G, G31C
DNA 1: CAATCTGAATTCCGGTCTCCC
DNA 2: TGGTGGCTACGACGGGATT
B23: GGAGCAC (DNA:RNA)
RNA: B1 RNA with C26G, U27A, C28G, U30A, U31C
DNA 1: CAATCTGAATTCCGGTCTCCC
DNA 2: TGGTGGCTACGACGGGATT
B24: GGGGGAC (DNA:RNA)
RNA: B6 RNA with C25G, C27G, A28G, U29G, C30A, G31C
DNA 1: CAATCTGAATTCCGGTCTCCC
DNA 2: TGGTGGCTACGACGGGATT
B25: CGUGCUU (DNA:RNA)
RNA: B1 RNA with G25C, C26G, C28G
DNA 1: CAATCTGAATTCCGGTCTCCC
DNA 2: TGGTGGCTACGACGGGATT
B26: AUGCUAU (DNA:RNA)
RNA: B1 RNA with G25A, C26U, U27G, C29U, U30A
DNA 1: CAATCTGAATTCCGGTCTCCC
DNA 2: TGGTGGCTACGACGGGATT
B27: AAGGUUG (DNA:RNA)
RNA: B6 RNA with C25A, G26A, C27G, A28G, C30U
DNA 1: CAATCTGAATTCCGGTCTCCC
DNA 2: TGGTGGCTACGACGGGATT
B28: CCGGGCG (DNA:RNA)
RNA: B6 RNA with G26C, C27G, A28G, U29G
DNA 1: CAATCTGAATTCCGGTCTCCC
DNA 2: TGGTGGCTACGACGGGATT
B29: CUGACAA (DNA:RNA)
RNA: B6 RNA with G26U, C27G, U29C, C30A, G31A
DNA 1: CAATCTGAATTCCGGTCTCCC
DNA 2: TGGTGGCTACGACGGGATT
B30: UCCGUGG (DNA:RNA)
RNA: B6 RNA with C25U, G26C, A28G, C30G
DNA 1: CAATCTGAATTCCGGTCTCCC
DNA 2: TGGTGGCTACGACGGGATT
B31: CGCAACU (DNA:RNA)
RNA: B6 RNA with U29A, G31U
DNA 1: CAATCTGAATTCCGGTCTCCC
DNA 2: TGGTGGCTACGACGGGATT

Where a chain is given by its changes, count along the chain named. This is one part of the list.

The target in this experiment is T1, RBFOX1 RRM RbFoxmut (Fox-RRM*). The experiment is described as follows: EMSA; HiTS-Eq, 1 nM pool, 10 min; buffer printed only for the single-RNA assays: 10 mM Tris pH 7.5, 150 mM NaCl, 3.4 mM EDTA, 0.001% NP-40, 30 C. As to conditions: tags: His6 N-terminal (pET28a); label: 5' 32P. In outline: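 Purified RbFox RRM (wild type or mutant) was equilibrated for 10 min in 50 µL with 1 nM of a 5′-radiolabelled pool of RNA with 7 randomized nucleotides, its flanks annealed to DNA oligonucleotides, across increasing protein concentrations. Free RNA was separated by 8% native PAGE, excised, reverse-transcribed, PCR-barcoded and sequenced on an Illumina HiSeq 2500. Relative association constants came from read-count changes of each variant against the control reaction, normalised to the cognate motif.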
(In general: In EMSA bound probe runs differently from free probe, usually more slowly.)
Consider B1, for which the binding signal is 0.0523 KA relative to UGCAUGU. Consider B2, for which the binding signal is 0.127 KA relative to UGCAUGU.

Regarding B3, the binding signal was 0.0932 KA relative to UGCAUGU. In the case of B4, the binding signal was 0.0654 KA relative to UGCAUGU. On to B5, for which the binding signal is 0.112 KA relative to UGCAUGU. On to B6, for which the binding signal is 0.625 KA relative to UGCAUGU. Turning to B7, the binding signal is 0.048 KA relative to UGCAUGU.

For the molecule B8, the binding signal was 0.366 KA relative to UGCAUGU. As to B9, the binding signal was 0.0899 KA relative to UGCAUGU. In the case of B10, the binding signal was 0.0789 KA relative to UGCAUGU. Regarding B11, the binding signal is 0.067 KA relative to UGCAUGU.

Take B12: the binding signal is 0.0616 KA relative to UGCAUGU.

Turning to B13, the binding signal is 0.0881 KA relative to UGCAUGU.

Take B14: the binding signal was 0.0561 KA relative to UGCAUGU. Consider B15, for which the binding signal was 0.0814 KA relative to UGCAUGU. In the case of B16 it was 0.0797 KA relative to UGCAUGU. In the case of B17 it was 0.0824 KA relative to UGCAUGU; in that of B18, 0.0951 KA relative to UGCAUGU.

Turning to B19, the binding signal is 0.0995 KA relative to UGCAUGU. Then B20, with 0.0969 KA relative to UGCAUGU. Then B21, with 0.133 KA relative to UGCAUGU; and B22, with 0.118 KA relative to UGCAUGU; and B23, with 0.0691 KA relative to UGCAUGU.

For the molecule B24, the binding signal was 0.0654 KA relative to UGCAUGU. As to B25, the binding signal is 0.0966 KA relative to UGCAUGU. In the case of B26 it was 0.11 KA relative to UGCAUGU; in that of B27, 0.256 KA relative to UGCAUGU; in that of B28, 0.109 KA relative to UGCAUGU.

B29: the binding signal is 0.0581 KA relative to UGCAUGU.

Regarding B30, the binding signal was 0.0953 KA relative to UGCAUGU. Then B31, with 0.116 KA relative to UGCAUGU.
